Data: article PMC6639383
Results are given in words; binding and its absence hold for the method and conditions named. Binding seen in cells or lysates may run through a third protein. Some binding calls cover weakened binding; strength is not graded here.

Amino acid sequences for entries named in this document (tags omitted). A change or cut given only in a name is not applied to a line headed by its entry. Chains listed by the source or under a name are the forms on record and can include a tag or linker. Residues count along the entry.
UniProt O75460, residues 19-977: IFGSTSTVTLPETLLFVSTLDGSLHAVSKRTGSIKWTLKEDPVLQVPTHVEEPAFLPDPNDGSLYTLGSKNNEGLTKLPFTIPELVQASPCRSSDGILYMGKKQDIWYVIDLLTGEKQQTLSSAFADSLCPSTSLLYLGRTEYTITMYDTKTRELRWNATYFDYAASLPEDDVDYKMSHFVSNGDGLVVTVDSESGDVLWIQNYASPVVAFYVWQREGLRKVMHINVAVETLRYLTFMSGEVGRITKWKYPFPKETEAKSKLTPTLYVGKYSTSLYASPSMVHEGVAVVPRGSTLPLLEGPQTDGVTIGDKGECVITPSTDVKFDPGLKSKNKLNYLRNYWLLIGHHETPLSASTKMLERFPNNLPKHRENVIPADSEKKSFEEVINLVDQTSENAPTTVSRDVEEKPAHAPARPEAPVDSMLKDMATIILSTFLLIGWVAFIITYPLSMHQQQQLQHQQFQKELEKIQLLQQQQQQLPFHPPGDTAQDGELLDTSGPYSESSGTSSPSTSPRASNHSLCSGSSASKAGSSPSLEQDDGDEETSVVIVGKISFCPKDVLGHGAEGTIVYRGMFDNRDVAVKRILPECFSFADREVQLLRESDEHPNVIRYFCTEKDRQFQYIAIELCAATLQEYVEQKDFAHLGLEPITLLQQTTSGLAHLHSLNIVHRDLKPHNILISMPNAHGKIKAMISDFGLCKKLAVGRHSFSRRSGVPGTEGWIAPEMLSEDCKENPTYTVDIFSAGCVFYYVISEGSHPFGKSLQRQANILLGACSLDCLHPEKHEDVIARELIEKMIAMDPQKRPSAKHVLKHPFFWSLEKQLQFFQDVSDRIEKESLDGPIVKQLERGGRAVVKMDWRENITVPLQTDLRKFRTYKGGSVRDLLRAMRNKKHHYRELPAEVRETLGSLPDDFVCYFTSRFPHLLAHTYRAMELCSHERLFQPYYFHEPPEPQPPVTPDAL
Protein kinase C substrate 80K-H (PRKCSH), endogenous (human (endogenous in L02 and Huh-7)) (P14314, residues 15-528): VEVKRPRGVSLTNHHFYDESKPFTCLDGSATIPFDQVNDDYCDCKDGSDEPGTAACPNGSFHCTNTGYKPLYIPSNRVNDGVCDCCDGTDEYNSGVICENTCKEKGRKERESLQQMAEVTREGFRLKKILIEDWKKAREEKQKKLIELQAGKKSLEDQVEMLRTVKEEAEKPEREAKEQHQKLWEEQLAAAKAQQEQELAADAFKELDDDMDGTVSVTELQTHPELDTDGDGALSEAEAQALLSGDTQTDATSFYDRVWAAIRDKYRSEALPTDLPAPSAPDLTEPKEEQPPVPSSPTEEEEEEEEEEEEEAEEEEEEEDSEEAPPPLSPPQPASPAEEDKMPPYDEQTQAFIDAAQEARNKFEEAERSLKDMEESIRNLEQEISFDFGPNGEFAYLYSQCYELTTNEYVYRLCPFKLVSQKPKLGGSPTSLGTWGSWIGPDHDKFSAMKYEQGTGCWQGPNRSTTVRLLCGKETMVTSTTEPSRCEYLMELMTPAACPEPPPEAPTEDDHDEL
Full-length wild-type PRKCSH with a C-terminal Flag-tag (P14314-2, form named): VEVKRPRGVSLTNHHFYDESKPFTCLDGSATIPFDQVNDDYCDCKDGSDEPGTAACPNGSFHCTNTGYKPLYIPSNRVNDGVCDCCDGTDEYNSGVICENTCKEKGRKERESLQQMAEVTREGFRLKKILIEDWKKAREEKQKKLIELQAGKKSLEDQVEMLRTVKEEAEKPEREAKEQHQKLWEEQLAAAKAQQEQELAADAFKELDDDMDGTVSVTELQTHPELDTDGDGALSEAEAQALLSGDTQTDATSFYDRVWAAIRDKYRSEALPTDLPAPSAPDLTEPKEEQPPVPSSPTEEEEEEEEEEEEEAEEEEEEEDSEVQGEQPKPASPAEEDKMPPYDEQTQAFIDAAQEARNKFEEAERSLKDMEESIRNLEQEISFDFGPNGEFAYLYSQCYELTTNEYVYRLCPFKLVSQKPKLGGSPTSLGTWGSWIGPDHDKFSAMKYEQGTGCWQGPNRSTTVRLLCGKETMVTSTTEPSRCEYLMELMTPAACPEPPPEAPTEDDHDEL

Legend:
[1] = target: inositol-requiring enzyme 1α (IRE1α/ERN1), endogenous (human (endogenous in L02 and Huh-7)) (UniProt O75460); assay: co-IP; L02 cells transfected with Flag-tagged PRKCSH constructs, treated with 10 μg/mL TM (mutants: 1 h); endogenous IRE1α; for PRK-Flag precipitation with anti-IRE1α antibody
[2] = target: inositol-requiring enzyme 1α (IRE1α/ERN1), endogenous (human (endogenous in L02 and Huh-7)) (UniProt O75460); assay: co-IP; endogenous proteins; lysates of L02 cells treated with 10 μg/mL TM or glucose-free medium and of Huh-7 cells treated with 10 μg/mL TM; lysis buffer 50 mM Tris-HCl pH 7.2, 10 mM NaCl, 1% NP-40; protein A agarose; for GIIα precipitation with anti-GIIα antibody
[3] = target: inositol-requiring enzyme 1α (IRE1α/ERN1), endogenous (human (endogenous in L02 and Huh-7)) (UniProt O75460); assay: condition: only 120 min of TM treatment (L02 cells); co-IP; endogenous proteins; lysates of L02 cells at 120 min of 10 μg/mL TM treatment
[4] = target: inositol-requiring enzyme 1α (IRE1α/ERN1), endogenous (human (endogenous in L02 and Huh-7)) (UniProt O75460); assay: co-IP; endogenous proteins; lysates of resting (untreated) L02 and Huh-7 cells; lysis buffer 50 mM Tris-HCl pH 7.2, 10 mM NaCl, 1% NP-40; protein A agarose
[5] = target: Protein kinase C substrate 80K-H (PRKCSH), endogenous (human (endogenous in L02 and Huh-7)) (UniProt P14314); assay: co-IP; L02 cells transfected with IRE1α-FV, resting cells; precipitation with anti-PRKCSH antibody
[6] = target: Protein kinase C substrate 80K-H (PRKCSH), endogenous (human (endogenous in L02 and Huh-7)) (UniProt P14314); assay: co-IP; L02 cells transfected with IRE1α-FV, treated with 10 μg/mL TM; precipitation with anti-PRKCSH antibody

Full-length wild-type PRKCSH with a C-terminal Flag-tag (from UniProt P14314-2 15-525)
binding [1]: binds

Protein kinase C substrate 80K-H (PRKCSH), endogenous (from UniProt P14314 15-528)
binding [2]: binds | binding [3]: no binding | binding [4]: no binding (condition: resting conditions (no ER stress))

Flag- and Venus-tagged human IRE1α construct (IRE1α-FV) (from UniProt O75460 19-977)
binding [5]: binds weakly | binding [6]: binds
